# This list was built around the results that the source calls inconclusive (neither active nor inactive); the mix of calls is not that of the screen. For part of these data: Potencies of inconclusive entries are left out as doubtful fits. Calls of active or inactive are those of the source. Unless noted, calls follow the shape of the dose curve; as a rule, active = well fitted curve in the direction sought with a large enough effect; inconclusive = small, poorly fitted or top-dose-only effect, or another doubt; inactive = no such curve, though single readings can be large; an effect the other way counts as inactive or inconclusive.
# What was measured:
# [1] = qHTS of pediatric cancer cell lines to identify multiple opportunities for drug repurposing: Primary screen for NB-EBc1 cells (AID 1347095);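 as to activity change, negative = cytotoxic: plate controls were DMSO neutral control for no effect and bortezomib for full effect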
# Procedure, shortened: (§1)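 CRCs from 8- or 11-point titrations (lowest final 0.59 nM NPC, 0.78 nM MIPE). Cell viability: CellTiter-Glo after 48 h incubation, 15 min room-temperature development, luminescence imaging.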
# [2] = qHTS of pediatric cancer cell lines to identify multiple opportunities for drug repurposing: Primary screen for SK-N-SH cells (AID 1347098); settings: SK-N-SH viability, CellTiter-Glo luminescence, 48 h; activity change, negative = cytotoxic: at 57 µM (top of the series); also: nearly all actives have a fitted effect of over 65% in size;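 as to activity change, negative = cytotoxic: DMSO served as neutral control and bortezomib at 2.3 µM as positive control; % is scaled to controls: 0 for no effect and ±100 for the full control effect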
# Procedure, shortened: (§2)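 Cells (500-1,000/well) rested 5 h, then received compounds for 48 h; metabolically active cells were measured by CellTiter-Glo luminescence. Final concentrations spanned up to 46 µM (MIPE, 11-point) or 0.59 nM-46 µM (NPC, 8-point) in primary screens, 11-point in follow-ups.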
# [3] = qHTS of pediatric cancer cell lines to identify multiple opportunities for drug repurposing: Primary screen for NB1643 cells (AID 1347099); also: nearly all actives have a fitted effect of over 50% in size;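 as to activity change, negative = cytotoxic: plate controls were DMSO neutral control for no effect and bortezomib positive control for full effect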
# Procedure, shortened: as §1
# MCC-13 = test: qHTS assay to identify novel small-molecules to repurpose for Merkel cell carcinoma treatment (AID 1296009); settings: MCC and control cell lines, CellTiter-Glo viability, 72 h; series mostly up to 46 µM; also: nearly all actives have a fitted effect of over 60% in size; as to activity change, negative = cytotoxicity: % is scaled to controls: 0 for no effect and ±100 for the full control effect
# Procedure, shortened: (§3)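 Cells were treated for 72 hr at 37 degree celsius with compounds in 8- or 11-point dose response. Viability was read by CellTiter-Glo luminescence, normalized to no-cell (cytotoxicity) and DMSO controls.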
# [4] = NS1 protein of Zika virus - qHTS assay to identify small molecule inhibitors in human HEK 293 cells (AID 1347053); also: nearly all actives have a fitted effect of over 55% in size;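 as to activity change, negative = inhibition: plate controls were infected untreated cells for no effect and uninfected cells for full effect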
# Procedure, shortened: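 HEK 293; 20 h pre-culture, 37 C/5% CO2; cpd 1 h pre-infection; ZIKV MR766, MOI = 0.5, 24 h, 37 C; TR-FRET NS1 readout (two anti-NS1 Abs); norm. to no-virus vs infected.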
# [5] = qHTS of pediatric cancer cell lines to identify multiple opportunities for drug repurposing: Primary screen for A673 cells (AID 1347092); settings: A673 Ewing sarcoma viability, CellTiter-Glo ATP luminescence, 48 h; activity change, negative = cytotoxic: at 46 µM (top of the series); also: nearly all actives have a fitted effect of over 45% in size
# Procedure, shortened: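 A673 cells (500-1,000 cells/well) were treated 48 hours at 37 degrees C with compounds at 11-point (0.78 nM to 46 µM) or 8-point (0.59 nM to 46 µM) dilutions. Viability read by CellTiter-Glo luminescence; concentration-response curves fitted.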
# [6] = qHTS of pediatric cancer cell lines to identify multiple opportunities for drug repurposing: Primary screen for LAN-5 cells (AID 1347100);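 as to activity change, negative = cytotoxic: plate controls were DMSO neutral control for no effect and bortezomib positive control for full effect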
# Procedure, shortened: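 Viability after 48 h compound treatment at 37C, 500-1,000 cells/well, read as ATP luminescence with CellTiter-Glo. Primary screens used 11-point (MIPE, 0.78 nM-46 µM) or 8-point (NPC, 0.59 nM-46 µM) final concentrations; follow-up screens used 11-point dilutions.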
# [7] = qHTS of pediatric cancer cell lines to identify multiple opportunities for drug repurposing: Primary screen for TC32 cells (AID 1347089); also: nearly all actives have a fitted effect of over 60% in size
# Procedure, shortened: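 TC32 cells, 500-1,000/well in growth medium, compound-treated 48 h at 37 °C; viability from CellTiter-Glo luminescence. Primary screen: MIPE 11-point (0.78 nM–46 µM final), NPC 8-point (0.59 nM–46 µM final); confirmatory at 11-point dilutions.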
# [8] = qHTS of pediatric cancer cell lines to identify multiple opportunities for drug repurposing: Primary screen for Saos-2 cells (AID 1347097); settings: Saos-2 viability, CellTiter-Glo ATP luminescence, 48 h; activity change, negative = cytotoxic: at 46 µM (top of the series); also: nearly all actives have a fitted effect of over 40% in size
# Procedure, shortened: as §1
# [9] = qHTS of pediatric cancer cell lines to identify multiple opportunities for drug repurposing: Primary screen for OHS-50 cells (AID 1347103); also: nearly all actives have a fitted effect of over 40% in size;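 as to activity change, negative = cytotoxic: plate controls were DMSO neutral control for no effect and bortezomib positive control for full effect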
# Procedure, shortened: as §2
# [10] = qHTS of pediatric cancer cell lines to identify multiple opportunities for drug repurposing: Primary screen for MG 63 (6-TG R) cells (AID 1347105); settings: MG 63 (6-TG R) viability, CellTiter-Glo, 48 h; activity change, negative = cytotoxic: at 46 µM (top of the series) unless noted; also: nearly all actives have a fitted effect of over 50% in size
# Procedure, shortened: as §1
# [11] = qHTS to identify inhibitors of the type 1 interferon - major histocompatibility complex class I in skeletal muscle: primary screen against the NCATS Pharmaceutical Collection (AID 1347407); settings: human skeletal muscle cells, IFN-b-induced MHC-I HiBiT luminescence, 24 h; activity change, negative = inhibition: at 45.9 µM (top of the series);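 also: luminescence of HiBiT knocked into endogenous HLA-B as interferon-induced MHC class I level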
# Procedure, shortened: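 Immortalized human myoblasts (C25cl48) with HiBiT knocked into endogenous HLA-B*08:01 were stimulated with 4.0 ng/ml IFN-beta and treated with compounds ([…] top 46 uM) for 24 hrs at 37 C. HiBiT lytic luminescence read.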
# MCC-26 = test: qHTS assay to identify novel small-molecules to repurpose for Merkel cell carcinoma treatment (AID 1296009); settings: MCC and control cell lines, CellTiter-Glo viability, 72 h; series mostly up to 46 µM; also: nearly all actives have a fitted effect of over 60% in size; as to activity change, negative = cytotoxicity: % is scaled to controls: 0 for no effect and ±100 for the full control effect
# Procedure, shortened: as §3
# [12] = qHTS of pediatric cancer cell lines to identify multiple opportunities for drug repurposing: Primary screen for BT-37 cells (AID 1347094);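 as to activity change, negative = cytotoxic: plate controls were DMSO for no effect and bortezomib for full effect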
# Procedure, shortened: as §1
# [13] = qHTS of pediatric cancer cell lines to identify multiple opportunities for drug repurposing: Primary screen for RD cells (AID 1347104); also: nearly all actives have a fitted effect of over 55% in size;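 as to activity change, negative = cytotoxic: plate controls were DMSO for no effect and bortezomib for full effect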
# Procedure, shortened: as §1
# [14] = A High-Content qHTS Against Drug Library for the Identification of Small Molecules that Inhibit DYT1 Early Onset Primary Dystonia-Associated Cell Pathology (AID 1645839; calls by dose curve)
# Procedure, shortened: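 Flp-In T-REx 293 cells with tetracycline-inducible EGFP-delE hTOR1A (WT EGFP-hTOR1A as reference), 800 cells/well; compound added with tetracycline, 48 h at 37 C. Fixed, permeabilized cells imaged; %pathology (punctate TorsinA) primary, cell count counterscreen.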
# [15] = qHTS to identify inhibitors of the type 1 interferon - major histocompatibility complex class I in skeletal muscle: primary screen against the NCATS Mechanism Interrogation Plate v5.0 (MIPE) Libary (AID 1347411); settings: iHSKM cells + IFN-b, HiBiT-tagged MHC-I luminescence, 24 h; activity change, negative = inhibition: at 45.8 µM (top of the series); also: nearly all actives have a fitted effect of over 65% in size
# Procedure, shortened: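 Luminescence from HiBiT-tagged endogenous HLA-B*08:01 served as the MHC class I read-out. CRISPR-engineered C25cl48 human myoblasts received 4.0 ng/ml IFN-beta plus compound for 24 hrs, with an 11-point, 1:3 series topping at 46 uM final.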
# MKL-1 = test: qHTS assay to identify novel small-molecules to repurpose for Merkel cell carcinoma treatment (AID 1296009); settings: MCC and control cell lines, CellTiter-Glo viability, 72 h; activity change, negative = cytotoxicity: at 46 µM (top of the series); also: nearly all actives have a fitted effect of over 60% in size; as to activity change, negative = cytotoxicity: % is scaled to controls: 0 for no effect and ±100 for the full control effect
# Procedure, shortened: as §3
# [16] = target: Luciferin 4-monooxygenase (Photinus pyralis) (UniProt P08659); test: Primary firefly luciferase (FLuc) qHTS assay for identification of artifact compounds. (AID 1845220); also: nearly all actives have a fitted effect of over 60% in size
# Procedure, shortened: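 D-luciferin and ATP (10 uM each, final) in Tris acetate buffer pH 7.6 were incubated with compounds for 15 min at room temperature. The reaction was started with 10 nM Photinus pyralis luciferase and luminescence read after 5 min. Percent inhibition was fitted to a 4-parameter Hill equation.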
# [17] = tested on: Nanoluciferase (engineered Oplophorus gracilirostris luciferase); test: Primary Nanoluciferase (NLuc) qHTS assay for identification of artifact compounds. (AID 1845222)
# Procedure, shortened: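 Diluted conditioned medium from NLuc-expressing S16 cells treated with compounds for 15 min at room temperature, then Nano-Glo substrate added; luminescence read after 5 min. Percent inhibition versus no-enzyme and DMSO controls fitted to 4-parameter Hill equation.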
# Potency is read from the fitted curve at half-maximal effect; tags tell the direction and shape of the fitted curve.
compound,measurement,setting,value
NS(=O)(=O)c1cc2c(cc1Cl)CN(C1CCCCC1)C2=O,Potency,[1],inactive
same,Potency,[2],inactive
same,Potency,[3],inactive
same,Potency,MCC-13,inactive
C[C@H](CN1CCCC1)C(=O)c1ccc(C(F)(F)F)cc1,Potency,[4],inactive
same,Potency,[5],inactive
same,Potency,[6],"inconclusive [cytotoxic, single point]"
CCCSS/C(CCO)=C(\C)N(C=O)Cc1cnc(C)nc1N,Potency,[7],"inconclusive [cytotoxic, partial curve, poor fit]"
same,Potency,[5],"inconclusive [cytotoxic, single point]"
same,Potency,[8],"inconclusive [cytotoxic, single point]"
same,Potency,[2],"inconclusive [cytotoxic, single point]"
same,Potency,[3],"inconclusive [cytotoxic, single point]"
same,Potency,[6],"inconclusive [cytotoxic, single point]"
same,Potency,[9],active: 21.9 µM
same,Potency,[10],"inconclusive [cytotoxic, single point]"
same,Potency,[11],inactive
same,Potency,MCC-26,active: 26.6 µM
CN(C)CCOC1=Cc2ccccc2Sc2ccc(Cl)cc21,Potency,[5],"inconclusive [cytotoxic, partial curve, poor fit]"
same,Potency,[12],"inconclusive [cytotoxic, single point]"
same,Potency,[8],"inconclusive [cytotoxic, single point]"
same,Potency,[2],"inconclusive [cytotoxic, single point]"
same,Potency,[13],"inconclusive [cytotoxic, single point]"
same,Potency,[14],"inconclusive [inhibitor, partial curve, poor fit]"
NC1CCN(c2nc3c(cc2F)c(=O)c(C(=O)O)cn3-c2ccc(F)cc2F)C1 (stereo unspecified),Potency,[5],"inconclusive [cytotoxic, single point]"
same,Potency,[12],inactive
same,Potency,[8],inactive
same,Potency,[3],inactive
same,Potency,[13],inactive
same,Potency,MCC-13,inactive
COc1cc2c(NC3CCN(CC4CCCCC4)CC3)nc(N3CCCN(C(C)C)CC3)nc2cc1OCCCN1CCCCC1,Potency,[15],"inconclusive [inhibitor, partial curve, poor fit]"
C=C1C(=O)O[C@H]2[C@@H]1CCC(C)=CCC[C@@]1(C)O[C@@H]21,Potency,[4],active: 9.35 µM
same,Potency,[12],"inconclusive [cytotoxic, single point]"
same,Potency,[8],active: 3.32 µM
same,Potency,[3],active: 8.33 µM
same,Potency,[10],active: 9.35 µM
same,Potency,MCC-13,active: 16.6 µM
same,Potency,MCC-26,"inconclusive [inhibitor, partial curve]"
O=C(COc1ccc(Cl)cc1)N1CCN(Cc2ccc3c(c2)OCO3)CC1,Potency,[1],"inconclusive [cytotoxic, single point]"
same,Potency,[6],inactive
same,Potency,[9],"inconclusive [cytotoxic, partial curve]"
same,Potency,[14],"inconclusive [inhibitor, full curve, poor fit]"
COC[C@H](NC(=O)c1cnc(C)s1)C(=O)N[C@@H](COC)C(=O)N[C@@H](Cc1ccccc1)C(=O)[C@@]1(C)CO1,Potency,[4],active: 1.18 µM
same,Potency,[1],active: 0.0833 µM
same,Potency,[8],active: 0.662 µM
COc1ccc2c(c1)c(CC(=O)OC/C=C(\C)CC/C=C(\C)CCC=C(C)C)c(C)n2C(=O)c1ccc(Cl)cc1,Potency,[5],inactive
same,Potency,[1],inactive
Cc1cc(=O)[nH]c(=S)[nH]1,Potency,[8],"inconclusive [cytotoxic, partial curve]"
same,Potency,[9],inactive
CN(C)CCN1C(=O)c2ccccc2N(C)c2ccccc21,Potency,[2],inactive
CC[N+](CC)(CC)CCOC(=O)C(C1CCCC1)C1CCCC1,Potency,[5],"inconclusive [cytotoxic, single point]"
same,Potency,[6],"inconclusive [cytotoxic, single point]"
same,Potency,[9],"inconclusive [cytotoxic, partial curve]"
same,Potency,[13],inactive
Cc1ccc(C(=O)Oc2ccc(C(O)CNC(C)(C)C)cc2OC(=O)c2ccc(C)cc2)cc1 (stereo unspecified),Potency,[7],inactive
same,"activity change, negative = cytotoxic",[5],inconclusive: -58.7%
same,Potency,[9],"inconclusive [cytotoxic, single point]"
same,Potency,[13],"inconclusive [cytotoxic, partial curve]"
same,Potency,[11],"inconclusive [inhibitor, single point]"
same,Potency,[14],"inconclusive [inhibitor, single point]"
same,Potency,MKL-1,"inconclusive [inhibitor, single point]"
CC(C)COCC(CN(Cc1ccccc1)c1ccccc1)N1CCCC1 (stereo unspecified),Potency,[4],"inconclusive [inhibitor, single point] and inactive"
same,Potency,[7],"inconclusive [cytotoxic, single point]"
same,Potency,[12],active: 27.6 µM
same,Potency,[1],"inconclusive [cytotoxic, single point]"
same,Potency,[8],active: 26.6 µM
same,Potency,[3],active: 29.9 µM
same,Potency,[6],"inconclusive [cytotoxic, single point]"
same,Potency,[10],"inconclusive [cytotoxic, single point]"
same,Potency,[14],"inconclusive [inhibitor, single point]"
same,Potency,MKL-1,"inconclusive [inhibitor, single point]"
COc1c/c(=C2\C=c3ccccc3=N2)[nH]/c1=C\c1[nH]c(C)cc1C,Potency,[16],active: 3.38 µM
same,Potency,[17],active: 10.7 µM
NC(=O)c1cccc2cn(-c3ccc([C@@H]4CCCNC4)cc3)nc12,Potency,[4],active: 11.8 µM
same,Potency,[12],"inconclusive [cytotoxic, partial curve]"
same,Potency,[1],active: 6.62 µM
same,Potency,[8],"inconclusive [cytotoxic, partial curve]"
same,Potency,[2],inactive
same,Potency,[9],"inconclusive [cytotoxic, partial curve]"
same,Potency,[13],"inconclusive [cytotoxic, partial curve]"
same,Potency,MCC-26,"inconclusive [inhibitor, partial curve]"
same,Potency,MKL-1,active: 18.7 µM

# Reference: PubChem BioAssay (NCATS)
